The results in this text go back to the supplement of paper PMC10338343.

± gives the standard deviation. Only a part is listed here, and it is no random draw.
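Note: 1 nM active piRISC with 0.1 nM target library at 33 °C single turnover.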

The experiment concerns MIWI (PIWIL1) piRISC loaded with piRNA #1 (30 nt). The experiment is described as follows: pre-steady-state target cleavage rate (min^-1); MIWI and MILI are mouse PIWI proteins and EfPiwi is from a freshwater sponge; tags in brackets are library labels; higher = faster piRNA-guided slicing of the target. The conditions noted are these: guide: piRNA #1 5'p-UGAGGUAGUAGGUUGUAUAGUAUCCAGAGG; auxiliary factor: 500 nM mouse GTSF1. The procedure, abridged:
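Three pooled Cleave-'n-Seq trials supplied the data, with k3 capped at 0.0001 min^-1. In each, […] transcribed, DNA-blocked target RNA library and 1 nM active affinity-purified piRISC with one synthetic guide reacted in HEPES–potassium acetate buffer at 33 °C for 0–8 or 0–960 min, with or without 500 nM GTSF1 partner protein. Uncleaved targets were sequenced and normalised to depth and to weakly complementary targets. A burst-and-steady-state fit provided the pre-steady-state cleavage rate.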
For the sequence CCUCUGGAUACUAUACAACCUAACUACCUCA, the “pre-steady-state target cleavage rate” value came to 0.0333 ± 0.0068.

As to GGAGACCUUAGCUAUACAACCUACUACCUCA, the “pre-steady-state target cleavage rate” value was 1.06 ± 0.096.

As for GGAGACCUAAGUAUACAACCUACUUCCUCA, the “pre-steady-state target cleavage rate” value turned out to be 0.00667 ± 0.0026.

GGAGACCUUACUUUACAACCAACUACCUCA: the “pre-steady-state target cleavage rate” value was determined as 0.0162 ± 0.0045.

As to GGUCUGGAUACUUUAGAACCUACUACCUCA, the “pre-steady-state target cleavage rate” value worked out at 0.554 ± 0.039.

As to GGAGACCUAUGUAGUACAACCUACUACCUCA, the “pre-steady-state target cleavage rate” value worked out at 0.0175 ± 0.0062.

Turning to CCACUGGAUACUAUACAAGCUACUACCUCA, the “pre-steady-state target cleavage rate” value stood at 1.4 ± 0.063.

Regarding GGAGACCUAACUAUACAUCCUACUAGCUCA, the “pre-steady-state target cleavage rate” value came to 0.175 ± 0.034.

For the sequence GGUCUGGAUACUAUACAACCUACAACCUCA, the “pre-steady-state target cleavage rate” value stood at 0.383 ± 0.04.

As for GCUCUGGAUACUAUUCAAGCUACUACCUCA, the “pre-steady-state target cleavage rate” value came to 1.32 ± 0.071.

With GGAGACCUAUCGAUACAACCUACUACCUCA, the “pre-steady-state target cleavage rate” value was 0.147 ± 0.026.

Consider GGAGACCAUACUAAACAACCUACUACCACA, for which the “pre-steady-state target cleavage rate” value came to 1.03 ± 0.12.

In the case of GGAGUGGAUUCUAUUCAACCUACUACCUCA, the “pre-steady-state target cleavage rate” value worked out at 1.43 ± 0.094.

On to GGUCUGGAUACUAUACAACCUACUACCACA, for which the “pre-steady-state target cleavage rate” value is 0.749 ± 0.058.

As for GGAGACGAUACUAUACAACCAACUAGCUCA, the “pre-steady-state target cleavage rate” value came to 0.0409 ± 0.0085.

Regarding GGAGACCUAUCUUUACAACCUAGUACCUCA, the “pre-steady-state target cleavage rate” value was 0.0293 ± 0.0069.

With GGAGACCUAUCUAUACAACCUACUACUUCA, the “pre-steady-state target cleavage rate” value came to 1.32 ± 0.088.

As to CCUCUGGACUACUAUACAACCUACUACCUCA, the “pre-steady-state target cleavage rate” value was found to be 1.52 ± 0.11.

In the case of CCUCUGGAUUCUAUACAUCCUACUACCUCA, the “pre-steady-state target cleavage rate” value came to 1.35 ± 0.074.

Take GGUCUGGAUACUAUACAACCUUCUACCACA: the “pre-steady-state target cleavage rate” value came to 0.221 ± 0.036.

Take CCACUGGAUACUAUACAACCUACAACCUCA: the “pre-steady-state target cleavage rate” value stood at 1.44 ± 0.093.

Consider CCUCUGGAUACUAUACAACCUUCUACCUGA, for which the “pre-steady-state target cleavage rate” value is 0.275 ± 0.067.

Consider GCUCUGGAUUCUAUACAACCUAGUACCUCA, for which the “pre-steady-state target cleavage rate” value was 0.23 ± 0.035.

Turning to GGAGACCAUACUAUACAACCUACUACUCUCA, the “pre-steady-state target cleavage rate” value is 1.8 ± 0.12.

With GGAGACGUUACUAUACAACCAACUACCUCA, the “pre-steady-state target cleavage rate” value was found to be 0.117 ± 0.012.

As to GGACUGGAUACUAUACUACCUACUACGUCA, the “pre-steady-state target cleavage rate” value turned out to be 0.886 ± 0.095.

With CCUCUGGAUACAAAACAACCUACUACCUCA, the “pre-steady-state target cleavage rate” value is 1.34 ± 0.13.

In the case of GCUCUGGAUACUAUUACAACCUACUACCUCA, the “pre-steady-state target cleavage rate” value came to 1.7 ± 0.12.

In the case of GGAGACCUAACUAUAGAACCUUCUACCUCA, the “pre-steady-state target cleavage rate” value is 0.114 ± 0.014.

Consider GGUGUGGAUACAAUACAACCUACUACCUCA, for which the “pre-steady-state target cleavage rate” value was determined as 1.71 ± 0.13.

GGACUGGAUACUUUAGAACCUACUACCUCA: the “pre-steady-state target cleavage rate” value was found to be 0.509 ± 0.047.

Take “GGAGACCUAUGUAUACAACGAUGAUGGAGA [g12:g19:cont:t1A]”: the “pre-steady-state target cleavage rate” value is below 0.0001.

As for GGAGUGGAUACUAUACAACCUACUACGCUCA, the “pre-steady-state target cleavage rate” value was found to be 0.453 ± 0.04.

For CCUCUCCUUACUAUACAACCUACUACCUCA, the “pre-steady-state target cleavage rate” value was determined as 1.96 ± 0.13.

Regarding GCUCUGGAUCCUAUACAACCUACUACCUCA, the “pre-steady-state target cleavage rate” value worked out at 1.16 ± 0.11.

On to GGAGACCAUACUAUACAACCUAACUACCUCA, for which the “pre-steady-state target cleavage rate” value worked out at 0.0261 ± 0.0051.

For GGAGAGGAUACUAUACUAGCUACUACCUCA, the “pre-steady-state target cleavage rate” value is 0.309 ± 0.031.

As for GGAGACCAUACUAUACAACCUACUAGGACA, the “pre-steady-state target cleavage rate” value worked out at 0.00558 ± 0.0042.

Regarding GGUGUGGAUACUAUACAACCUACUACCUGA, the “pre-steady-state target cleavage rate” value stood at 0.419 ± 0.069.

For the sequence GGAGACCAUACUAUUCAUCCUACUACCUCA, the “pre-steady-state target cleavage rate” value came to 0.841 ± 0.068.
